# Data published in PubChem BioAssay AID686971 (National Center for Advancing Translational Sciences (NCATS), 2013).
# Among all 360,000 compounds or so, about 7,500 (2.1%) were called active. Inconclusive means that the source gave no clear call. Such entries were picked first, then a sample of the others. Calls come from the whole dose curve; as a rule, active = well fitted cell-killing curve with a large enough effect; inconclusive = small, poorly fitted or top-dose-only effect, or effect the other way, or another doubt; inactive = no such curve, though single readings can be large or run the other way. Potencies of inconclusive entries are left out as doubtful fits.
# Assay: qHTS for induction of synthetic lethality in tumor cells producing 2HG: qHTS for the HT-1080-IDH1KD cell line;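 for activity, negative = toxicity: 0% = DMSO wells and -100% = cell-free medium wells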
# Conditions: HT-1080 IDH1 knockdown viability, ATP luminescence, 48 h; activity, negative = toxicity: at 46.1 µM (top of the series) unless noted
# Method in brief: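 Luminescent ATP read-out (CellTiter-Glo, 10 min at room temperature) after 48 h compound exposure at 37 °C gave viability of IDH1-knockdown HT-1080 cells. Activity was normalised to DMSO and cell-free wells, then fitted as concentration-response curves.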
# Potency is the fitted concentration of half-maximal effect; tags give direction and shape of the fitted curve.
Compound,Potency,"activity, negative = toxicity"
CCCOc1ccc(C(=O)NNC(=S)NC(=O)CC)cc1,active: 10 µM,–
Cc1cccc([C@H]2[C@@H]3C=CC[C@@H](C)[C@@H]3C(=O)N2Cc2ccccc2)c1,"inconclusive [cytotoxic, single point]",–
CCN1C(=O)CC(c2ccco2)Sc2ccccc21 (stereo unspecified),"inconclusive [cytotoxic, partial curve]",–
CCOC(=O)C1=CCC(c2cccc(C)c2)N(S(=O)(=O)c2ccc(C)cc2)C1 (stereo unspecified),"inconclusive [cytotoxic, single point]",–
CCO[C@H]1OC(C(=O)NCc2nc3ccccc3[nH]2)=C[C@@H](C2CC2)[C@@H]1CCCO,active: 2.06 µM,–
O=C(O)c1cn(-c2ccc(F)c(F)c2)c2c(F)c(F)c(F)c(F)c2c1=O,"inconclusive [cytotoxic, single point]",–
O=C(c1ccc(NS(=O)(=O)c2ccc3c(c2)OCCO3)cc1)N1CCCCC1,"inconclusive [cytotoxic, single point]",–
Cc1c(C(=O)N/N=C/c2c(O)ccc3ccccc23)nnn1-c1nonc1N,active: 0.58 µM,–
COc1ccc(C2c3ccc4ccccc4c3Oc3ncn(CCN(C)C)c(=N)c32)cc1 (stereo unspecified),"inconclusive [cytotoxic, single point]",–
c1ccc(CCNc2ccnc3cc4ccccc4cc23)cc1,active: 20.6 µM,–
COC(=O)c1ccc2cc(OC)cc([N+](=O)[O-])c2n1,inactive,–
COc1ccc(CC(=O)NNC(=S)NC(=O)c2cc(OC)c(OC)c(OC)c2)cc1,"inconclusive [cytotoxic, partial curve]",–
CCCCCNCC(=O)Nc1cccc(C(=O)Nc2cccc(C(F)(F)F)c2)c1,active: 16.4 µM,–
COc1ccc([N+](=O)[O-])cc1NS(=O)(=O)c1cccc(C(=O)O)c1,inactive,–
COc1ccc(/C=C(\C#N)C(=O)NCCc2ccccc2)cc1OCc1ccccc1,"inconclusive [cytotoxic, single point]",–
CN1CCN(S(=O)(=O)c2ccc(N3CCN(C(c4ccccc4)c4ccccc4)CC3)nc2)CC1,–,inconclusive: 38.2%
CCC(Sc1nc(C)cc(=O)[nH]1)C(=O)Nc1sc2c(c1C#N)CCCC2 (stereo unspecified),inactive,–
Cc1ccc(CSCC(=O)Nc2ccccc2C(=O)O)cc1,"inconclusive [cytotoxic, partial curve]",–
O=C(NNC(=O)c1ccccc1O)c1ccc(Cl)cc1,"inconclusive [cytotoxic, partial curve]",–
CN(C)CCN(Cc1ccc(Cl)cc1)c1ccccn1,"inconclusive [cytotoxic, single point]",–
CN(CC(O)COc1ccc2ccccc2c1)C1CCCCC1 (stereo unspecified),"inconclusive [cytotoxic, partial curve]",–
NC(=O)c1ccsc1NC(=O)COc1ccccc1,"inconclusive [cytotoxic, single point]",–
O=C(Nc1ncc(Cc2ccc(SC(F)F)cc2)s1)c1ccc(OC(F)F)cc1,active: 0.0461 µM,–
Cc1cc2cc(CN(Cc3ccco3)S(=O)(=O)c3c(C)ccc4nsnc34)c(=O)[nH]c2cc1C,"inconclusive [cytotoxic, single point]",–

Compound,Potency,"activity, negative = toxicity"
N#CC1=C(N)SC(N)=C(C#N)C1CCc1ccccc1,"inconclusive [cytotoxic, partial curve, poor fit]",–
Clc1ccc(-c2ccc(/C=N/Nc3cc(N4CCOCC4)nc(N4CCOCC4)n3)o2)cc1,"inconclusive [cytotoxic, single point]",–
CSc1nc2ccccc2cc1/C=C(\C#N)c1ccccc1,active: 18.4 µM,–
CC(=O)N1Cc2cc(C(=O)NCC(F)(F)F)nc(-c3cccc(-c4cc5ccccc5o4)c3)c2[C@H]1CCO,inactive,–
CC(C)c1ccc(/C=N/n2nnnc2Nc2ccccc2)cc1,inactive,–
COc1ccc(NC(=O)C2Cc3c(-c4ccc5c(c4)OCO5)ccnc3O2)cc1OC (stereo unspecified),active: 16.4 µM,–
Cc1cc(SCC(=O)c2cccs2)n2nc(C)c(-c3ccccc3)c2n1,"inconclusive [cytotoxic, single point]",–
Cc1cccc(C)c1OCC(=O)N/N=C/C=C/c1ccco1,"inconclusive [cytotoxic, single point]",–
COc1cc(-c2cnc3c(NC=O)cc(-c4ccccc4)cn23)cc(OC)c1OC,"inconclusive [cytotoxic, full curve, poor fit]",–
O=C(CSc1ccccc1)Nc1ccc(C(=O)Nc2cccc(O)c2)cc1,inactive,–
COc1ccc(Cc2c(-c3ccc(OC)c(OC)c3)nc3cc(C)c(Br)c(C)n23)c(C)c1,"inconclusive [cytotoxic, single point]",–
Cc1ccc(CSc2nc3ccncc3[nH]2)cc1,"inconclusive [cytotoxic, partial curve]",–
O=C(NCc1ccccc1)c1ccc(S(=O)(=O)NCc2ccco2)cc1,inactive,–
CCNC(=O)CC1C(=O)N(c2ccccc2)C(=O)N1CCc1ccc(OC)cc1 (stereo unspecified),inactive,–
CC(C)(C)C1CCC(C(=O)Nc2cccnc2)CC1 (stereo unspecified),–,inconclusive: -10.9% [cytotoxic]
c1ccc(CN2CCC(Nc3ncnc4sccc34)CC2)cc1,–,inconclusive: -19.2% [cytotoxic]
Cc1cc(-c2cc(C(=O)NCc3ccccc3)on2)nc(S(C)(=O)=O)n1,"inconclusive [cytotoxic, single point]",–
O=C(Nc1ccc(N2CCN(C(=O)c3cccs3)CC2)c(Cl)c1)c1ccco1,"inconclusive [cytotoxic, single point]",–
Cc1noc(C)c1S(=O)(=O)NC(=O)C1(C)CCN1C(=O)c1ccccc1CCc1ccccc1 (stereo unspecified),"inconclusive [cytotoxic, partial curve]",–
CSc1cccc(NC(=O)CCCOc2ccc(Cl)cc2C)c1,"inconclusive [cytotoxic, single point]",–
CC(C)(C)OC(=O)CNC(=O)c1nc[nH]c1C(=O)N1CCN(C(=O)OC(C)(C)C)CC1,inactive,–
c1ccc2c(OCCCN3CCCCCC3)cccc2c1,inactive,–
Cc1c2cnccc2c(C)c2c1oc1ccccc12,inactive,–
Cc1cc(N)n2nc(C)c(-c3ccc(Cl)cc3)c2n1,"inconclusive [cytotoxic, single point]",–

Compound,Potency,"activity, negative = toxicity"
CCc1nc2sc3c(c2c(=O)n1N)CC(C)(C)OC3,inactive,–
Cc1[nH]ccc(=O)c1Cc1c(Cl)cccc1Cl,inactive,–
Cn1cnnc1SCC(=O)c1ccc(OC(F)F)cc1,"inconclusive [cytotoxic, single point]",–
Cc1ccc(CSc2nc3c(c(N(C)C)n2)CCCC3)cc1,"inconclusive [cytotoxic, single point]",–
CN1/C(=C\C=C2/SC(=S)N(CC(=O)O)C2=O)C(C)(C)c2ccccc21,–,inconclusive: -32.1% [cytotoxic]
Cc1ccccc1-n1c(Cc2cccs2)n[nH]c1=S,"inconclusive [cytotoxic, single point]",–
CCC(C)NC(=S)N1CCN(C)CC1 (stereo unspecified),"inconclusive [rising, single point]",–
COc1ccc(OC)c(C2C(C(N)=O)=C(C)Nc3nc(-c4cccc(Cl)c4)nn32)c1 (stereo unspecified),"inconclusive [cytotoxic, single point]",–
COc1ccc(CC2(CO)CCN(C/C=C/c3ccccc3OC)CC2)cc1,"inconclusive [cytotoxic, single point]",–
Cc1ccc(NC(=O)c2ccc([N+](=O)[O-])o2)c(C)c1,"inconclusive [cytotoxic, single point]",–
Cc1ccc2nc(C(C)(C)C)c(Cc3ccsc3)n2c1,"inconclusive [cytotoxic, single point]",–
Cc1cccn2c(=O)c(/C=C(\C#N)C(N)=O)c(N3CCN(c4cccc(Cl)c4)CC3)nc12,"inconclusive [cytotoxic, single point]",–
COc1ccccc1N1CCN(C(=O)c2cccc(S(=O)(=O)N3c4ccccc4CC3C)c2)CC1 (stereo unspecified),"inconclusive [cytotoxic, single point]",–
Cc1ccc(-c2onc(C)c2C)cc1S(=O)(=O)N1CC(C)Oc2ccccc21 (stereo unspecified),"inconclusive [cytotoxic, single point]",–
Cc1csc(N(C)C(=O)CSc2nnc(COc3cccc4ccccc34)o2)n1,"inconclusive [cytotoxic, full curve]",–
O=C(Nc1ccc(N2CCCCCC2)cc1)c1ccccc1Cl,active: 8.2 µM,–
COc1ccc(NC(=O)C2(C)CCN2Cc2csc3ccccc23)cc1OC (stereo unspecified),"inconclusive [cytotoxic, single point]",–
COc1ccc(C2C(C#N)=C3NC(=O)c4c(sc5c4CCCCC5)N3C3=C2C(=O)CC(C)(C)C3)cc1 (stereo unspecified),"inconclusive [cytotoxic, single point]",–
COCCNc1nc(Oc2cccc3ccccc23)c2sccc2n1,"inconclusive [cytotoxic, single point]",–
Cc1ccc(-c2csc(C(O)(c3ccccc3)C(F)(F)F)n2)cc1C (stereo unspecified),"inconclusive [cytotoxic, single point]",–
NC(=O)N/N=C/c1ccccc1OCc1cccc2ccccc12,inactive,–
Cc1nnc2sc(SCc3ccccc3Cl)nn2c1=O,inactive,–
O=C(CSc1nc2ccccc2c(=O)n1Cc1ccco1)N1CCCCCC1,"inconclusive [cytotoxic, single point]",–
